# From the supplement of paper PMC8728848
# Some of the results follow.
# B1: Pa IMPa (Pseudomonas aeruginosa), Q9I5W4 (protein)
# chain: MSLSTTAFPSLQGENMSRSPIPRHRALLAGFCLAGALSAQAATQEEILDAALVSGDSSQLTDSHLVALRLQQQVERIRQTRTQLLDGLYQNLSQAYDPGAASMWVLPANPDNTLPFLIGDKGRVLASLSLEAGGRGLAYGTNVLTQLSGTNAAHAPLLKRAVQWLVNGDPGAATAKDFKVSVVGVDKTAALNGLKSAGLQPADAACNALTDASCASTSKLLVLGNGASAASLSATVRARLQAGLPILFVHTNGWNQSSTGQQILAGLGLQEGPYGGNYWDKDRVPSSRTRTRSVELGGAYGQDPALVQQIVDGSWRTDYDWSKCTSYVGRTTCDDVPGLSDFSKRVDVLKGALDAYNQKAQNLFALPGTTSLRLWLLWADAVRQNIRYPMDKAADTARFQETFVADAIVGYVREAGAAQKELGSYAGQRQQSMPVSGSEETLTLTLPSAQGFTAIGRMAAPGKRLSIRIEDAGQASLAVGLNTQRIGSTRLWNTRQYDRPRFLKSPDIKLQANQSVALVSPYGGLLQLVYSGATPGQTVTVKVTGAASQPFLDIQPGEDSSQAIADFIQALDADKADWLEIRSGSVEVHAKVEKVRGSIDKDYGGDVQRFIRELNEVFIDDAYTLAGFAIPNQAKTPAIQQECAARGWDCDSETLHKLPGTQHINVDQYAQCGGGCSGNPYDQTWGLNPRGWGESHELGHNLQVNRLKVYGGRSGEISNQIFPLHKDWRVLREFGQNLDDTRVNYRNAYNLIVAGRAEADPLAGVYKRLWEDPGTYALNGERMAFYTQWVHYWADLKNDPLQGWDIWTLLYLHQRQVDKSDWDANKAALGYGTYAQRPGNSGDASSTDGNDNLLLGLSWLTQRDQRPTFALWGIRTSAAAQAQVAAYGFAEQPAFFYANNRTNEYSTVKLLDMSQGSPAWPFP
# Tests used:
# Test in all cases: glycan array binding signal (z-score within array); higher = stronger binding
# Conditions in all cases: glycan notation: IUPAC condensed, linker removed
# [1] = target: Neu5Ac(a2-6)Gal(b1-4)GlcNAc(b1-2)Man(a1-3)[Neu5Ac(a2-3)Gal(b1-4)GlcNAc(b1-2)Man(a1-6)]Man(b1-4)GlcNAc(b1-4)GlcNAc
# Outline: (§1)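 The binding signal is a Z-score computed within each array. Data were drawn from 3228 arrays in the Consortium for Functional Glycomics database, restricted to those with a known protein sequence. Scores were averaged over arrays of the same protein sequence at different concentrations or buffers, and over linkers, and negative values can be taken as non-binding.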
# [2] = target: Neu5Ac(a2-6)Gal(b1-4)GlcNAc(b1-2)Man(a1-3)[Neu5Ac(a2-6)Gal(b1-4)GlcNAc(b1-2)Man(a1-6)]Man(b1-4)GlcNAc(b1-4)GlcNAc
# Outline: as §1
# [3] = target: Neu5Ac(a2-6)Gal(b1-4)GlcNAc(b1-2)Man(a1-3)[Neu5Ac(a2-6)Gal(b1-4)GlcNAc(b1-2)Man(a1-6)]Man(b1-4)GlcNAc(b1-4)[Fuc(a1-6)]GlcNAc
# Outline: as §1
# [4] = target: Neu5Ac(a2-6)Gal(b1-4)GlcNAc(b1-2)Man(a1-6)Man(b1-4)GlcNAc(b1-4)GlcNAc
# Outline: as §1
# [5] = target: Neu5Ac(a2-6)Gal(b1-4)GlcNAc(b1-2)Man(a1-6)[Gal(b1-4)GlcNAc(b1-2)Man(a1-3)]Man(b1-4)GlcNAc(b1-4)GlcNAc
# Outline: as §1
# [6] = target: Neu5Ac(a2-6)Gal(b1-4)GlcNAc(b1-2)Man(a1-6)[GlcNAc(b1-2)Man(a1-3)]Man(b1-4)GlcNAc(b1-4)GlcNAc
# Outline: as §1
# [7] = target: Neu5Ac(a2-6)Gal(b1-4)GlcNAc(b1-2)Man(a1-6)[Man(a1-3)]Man(b1-4)GlcNAc(b1-4)GlcNAc
# Outline: as §1
# [8] = target: Neu5Ac(a2-6)Gal(b1-4)GlcNAc(b1-2)[Neu5Ac(a2-6)Gal(b1-4)GlcNAc(b1-4)]Man(a1-3)[GlcNAc(b1-4)][Neu5Ac(a2-6)Gal(b1-4)GlcNAc(b1-2)[Neu5Ac(a2-6)Gal(b1-4)GlcNAc(b1-6)]Man(a1-6)]Man(b1-4)GlcNAc(b1-4)GlcNAc
# Outline: as §1
# [9] = target: Neu5Ac(a2-6)Gal(b1-4)GlcNAc(b1-2)[Neu5Ac(a2-6)Gal(b1-4)GlcNAc(b1-4)]Man(a1-3)[GlcNAc(b1-4)][Neu5Ac(a2-6)Gal(b1-4)GlcNAc(b1-4)Man(a1-6)]Man(b1-4)GlcNAc(b1-4)GlcNAc
# Outline: as §1
# [10] = target: Neu5Ac(a2-6)Gal(b1-4)GlcNAc(b1-2)[Neu5Ac(a2-6)Gal(b1-4)GlcNAc(b1-6)]Man(a1-6)[Neu5Ac(a2-6)Gal(b1-4)GlcNAc(b1-2)Man(a1-3)][GlcNAc(b1-4)]Man(b1-4)GlcNAc(b1-4)GlcNAc
# Outline: as §1
# [11] = target: Neu5Ac(a2-6)Gal(b1-4)GlcNAc(b1-3)Gal(b1-3)GlcNAc
# Outline: as §1
# [12] = target: Neu5Ac(a2-6)Gal(b1-4)GlcNAc(b1-3)Gal(b1-4)GlcNAc
# Outline: as §1
# [13] = target: Neu5Ac(a2-6)Gal(b1-4)GlcNAc(b1-3)Gal(b1-4)GlcNAc(b1-2)Man(a1-3)[Neu5Ac(a2-6)Gal(b1-4)GlcNAc(b1-3)Gal(b1-4)GlcNAc(b1-2)Man(a1-6)]GalNAc
# Outline: as §1
# [14] = target: Neu5Ac(a2-6)Gal(b1-4)GlcNAc(b1-3)Gal(b1-4)GlcNAc(b1-3)Gal(b1-4)GlcNAc
# Outline: as §1
# [15] = target: Neu5Ac(a2-6)Gal(b1-4)GlcNAc(b1-3)Gal(b1-4)GlcNAc(b1-3)Gal(b1-4)GlcNAc(b1-2)Man(a1-3)[Neu5Ac(a2-6)Gal(b1-4)GlcNAc(b1-3)Gal(b1-4)GlcNAc(b1-3)Gal(b1-4)GlcNAc(b1-2)Man(a1-6)]GalNAc
# Outline: as §1
# [16] = target: Neu5Ac(a2-6)Gal(b1-4)GlcNAc(b1-3)Gal(b1-4)GlcNAc(b1-3)GalNAc
# Outline: as §1
# [17] = target: Neu5Ac(a2-6)Gal(b1-4)GlcNAc(b1-3)Gal(b1-4)GlcNAc(b1-3)[Neu5Ac(a2-6)Gal(b1-4)GlcNAc(b1-3)Gal(b1-4)GlcNAc(b1-6)]GalNAc
# Outline: as §1
# [18] = target: Neu5Ac(a2-6)Gal(b1-4)GlcNAc(b1-3)Gal(b1-4)GlcNAc(b1-6)[Gal(b1-3)]GalNAc
# Outline: as §1
# [19] = target: Neu5Ac(a2-6)Gal(b1-4)GlcNAc(b1-3)Gal(b1-4)[Fuc(a1-3)]GlcNAc(b1-3)Gal(b1-4)[Fuc(a1-3)]GlcNAc
# Outline: as §1
# [20] = target: Neu5Ac(a2-6)Gal(b1-4)GlcNAc(b1-3)GalNAc
# Outline: as §1
# [21] = target: Neu5Ac(a2-6)Gal(b1-4)GlcNAc(b1-3)[Neu5Ac(a2-6)Gal(b1-4)GlcNAc(b1-6)]GalNAc
# Outline: as §1
# [22] = target: Neu5Ac(a2-6)Gal(b1-4)GlcNAc(b1-6)GalNAc
# Outline: as §1
# [23] = target: Neu5Ac(a2-6)Gal(b1-4)GlcNAc(b1-6)[Gal(b1-3)GlcNAc(b1-3)]Gal(b1-4)Glc
# Outline: as §1
# [24] = target: Neu5Ac(a2-6)Gal(b1-4)GlcNAc(b1-6)[Gal(b1-3)]GalNAc
# Outline: as §1
# [25] = target: Neu5Ac(a2-6)Gal(b1-4)GlcNAc6S
# Outline: as §1
# Neu5Ac(a2-6)GalNAc = target: Neu5Ac(a2-6)GalNAc
# Outline: as §1
# [26] = target: Neu5Ac(a2-6)GalNAc(b1-4)GlcNAc
# Outline: as §1
# [27] = target: Neu5Ac(a2-6)GalNAc(b1-4)GlcNAc6S
# Outline: as §1
# [28] = target: Neu5Ac(a2-6)GlcNAc(b1-4)GlcNAc
# Outline: as §1
# [29] = target: Neu5Ac(a2-6)GlcNAc(b1-4)GlcNAc(b1-4)GlcNAc
# Outline: as §1
binder,measurement,setting,value
B1,glycan array binding signal (z-score),[1],0.275
same,glycan array binding signal (z-score),[2],0.217
same,glycan array binding signal (z-score),[3],-0.119
same,glycan array binding signal (z-score),[4],0.791
same,glycan array binding signal (z-score),[5],-0.15
same,glycan array binding signal (z-score),[6],0.752
same,glycan array binding signal (z-score),[7],0.154
same,glycan array binding signal (z-score),[8],-0.238
same,glycan array binding signal (z-score),[9],-0.008
same,glycan array binding signal (z-score),[10],-0.224
same,glycan array binding signal (z-score),[11],-0.527
same,glycan array binding signal (z-score),[12],-0.371
same,glycan array binding signal (z-score),[13],0.457
same,glycan array binding signal (z-score),[14],-0.353
same,glycan array binding signal (z-score),[15],0.335
same,glycan array binding signal (z-score),[16],0.067
same,glycan array binding signal (z-score),[17],0.683
same,glycan array binding signal (z-score),[18],-0.002
same,glycan array binding signal (z-score),[19],0.068
same,glycan array binding signal (z-score),[20],-0.376
same,glycan array binding signal (z-score),[21],-0.063
same,glycan array binding signal (z-score),[22],0.506
same,glycan array binding signal (z-score),[23],-0.446
same,glycan array binding signal (z-score),[24],-0.253
same,glycan array binding signal (z-score),[25],-0.247
same,glycan array binding signal (z-score),Neu5Ac(a2-6)GalNAc,-0.489
same,glycan array binding signal (z-score),[26],1.12
same,glycan array binding signal (z-score),[27],-0.077
same,glycan array binding signal (z-score),[28],-0.303
same,glycan array binding signal (z-score),[29],-0.358
